Data taken from publication PMC4336329 (PLoS ONE, 2015).
Screen size: about 310,000 compounds; about 2,200 (0.71%) showed an effect of 50% or more. Effects have a minus sign here. The list shows a part of the results.

Each compound was assayed against human ether-à-go-go-related gene (hERG) potassium channel (human, UniProt Q12809) (assay: primary screen, population patch clamp on CHO cells stably expressing hERG).
Chain of human ether-à-go-go-related gene (hERG) potassium channel (Q12809 whole entry, looked up): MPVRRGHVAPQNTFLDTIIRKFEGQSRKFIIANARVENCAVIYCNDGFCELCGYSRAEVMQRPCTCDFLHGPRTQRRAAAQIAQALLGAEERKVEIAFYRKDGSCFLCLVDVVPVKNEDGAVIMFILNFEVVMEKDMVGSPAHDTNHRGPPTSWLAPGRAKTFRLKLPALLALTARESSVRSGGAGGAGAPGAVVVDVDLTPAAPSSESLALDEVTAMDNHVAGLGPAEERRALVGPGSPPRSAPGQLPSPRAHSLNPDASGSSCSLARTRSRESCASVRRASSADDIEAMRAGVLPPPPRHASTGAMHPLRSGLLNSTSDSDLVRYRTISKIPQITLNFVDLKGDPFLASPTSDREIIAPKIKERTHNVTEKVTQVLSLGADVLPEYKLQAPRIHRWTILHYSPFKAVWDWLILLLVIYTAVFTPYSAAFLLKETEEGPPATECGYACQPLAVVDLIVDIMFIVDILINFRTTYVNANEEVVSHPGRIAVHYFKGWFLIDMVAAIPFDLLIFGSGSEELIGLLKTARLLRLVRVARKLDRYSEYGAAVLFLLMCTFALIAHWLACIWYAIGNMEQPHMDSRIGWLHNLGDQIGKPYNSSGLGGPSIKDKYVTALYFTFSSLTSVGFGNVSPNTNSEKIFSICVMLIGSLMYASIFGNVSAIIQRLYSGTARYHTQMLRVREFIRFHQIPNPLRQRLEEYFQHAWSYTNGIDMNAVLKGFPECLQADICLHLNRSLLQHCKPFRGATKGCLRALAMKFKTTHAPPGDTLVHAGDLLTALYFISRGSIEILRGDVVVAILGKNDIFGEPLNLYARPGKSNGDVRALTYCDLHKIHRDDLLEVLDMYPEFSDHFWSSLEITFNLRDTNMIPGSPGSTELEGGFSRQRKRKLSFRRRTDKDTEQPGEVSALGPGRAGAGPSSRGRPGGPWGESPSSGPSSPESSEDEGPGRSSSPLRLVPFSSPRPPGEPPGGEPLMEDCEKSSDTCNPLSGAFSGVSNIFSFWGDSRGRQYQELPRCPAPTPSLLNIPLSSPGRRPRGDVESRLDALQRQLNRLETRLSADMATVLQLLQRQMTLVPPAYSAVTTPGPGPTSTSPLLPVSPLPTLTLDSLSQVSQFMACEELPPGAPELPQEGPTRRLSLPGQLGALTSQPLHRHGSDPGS

In order of falling “hERG current change (%, negative = inhibition) at 1uM” value:
1. Cc1cc(C)nc(SCCn2c(N3CCOCC3)nc3c2c(=O)[nH]c(=O)n3C)n1  18.2%
2. CCn1c(SCC(=O)NC2CC2)nnc1-c1ccncc1  18.1%
3. CCn1c(=O)n(CC)c2cc(NC(=O)c3ccccc3Cl)ccc21  18%
4. CC1CCN(CC(=O)Nc2nc(-c3ccccc3)cs2)CC1  17.6%
5. CC12CC3CC(C)(C1)CC(C(=O)NCc1ccncc1)(C3)C2  17.3%
6. O=C(c1ccc(NS(=O)(=O)c2ccc(F)cc2)cc1)N1CCC1  17%
7. COc1ccc(-c2nc3ccccc3c(=O)n2CCOc2cccc(C)c2C)cc1  15.4%
8. O=C(Cn1cc(C(F)(F)F)ccc1=O)N/N=C/c1ccccc1  15.1%
9. Cc1cc(C)c(S(=O)(=O)NCc2cccnc2)cc1C  14.8%
10. O=C(CSc1nnc(-c2ccccc2O)n1-c1ccccc1)Nc1cccc(C(=O)O)c1  14.7%
11. Cc1nc2ccccn2c1C(=O)Nc1ccc(Cl)cc1  14%
12. O=C1Nc2ccccc2S/C1=C/c1cccs1  13.4%
13. Cc1ccc(OC(=O)c2ccncc2)c(C)c1  12.6%
14. CS(=O)(=O)Cc1ccc(C(=O)NC(c2ccccc2)c2ccccc2)cc1  12.3%
15. Cc1ccccc1N1CCN(CCCN2C(=O)C3CCCCN3C2=O)CC1 (centres unmarked)  11.9%
16. CCCC(=O)Nc1nc2ccc(C(=O)OCC)cc2s1  11.8%
17. COC(=O)CC/C(=N/Nc1ccc(Cl)c(Cl)c1)C(=O)OC  11.8%
18. O=C(CCNC(=O)C1CCN(S(=O)(=O)c2ccc(F)cc2)CC1)NCCc1cccc(F)c1  11.7%
19. CC(C)(C)NC(=O)C(=O)NNC(=O)c1ccco1  11.5%
20. COc1cc(C2C3=C(CC(C)(C)CC3=O)N(C)C3=C2C(=O)CC(C)(C)C3)ccc1O  11.2%
21. Cc1cc(C(=O)Nc2ccccc2C(=O)O)oc1C  11%
22. CCOc1ccc(NC(=O)CSc2ccc(-c3cccnc3)nn2)cc1  10.8%
23. COc1ccc(NC(=O)CCC(=O)N/N=C/c2ccncc2)cc1  10.6%
24. CC(=O)Nc1ccc(Nc2cc(N(C)C)c3nonc3c2[N+](=O)[O-])cc1  10.6%
25. O=C(CN1CC(c2ccccc2)CC1=O)Nc1ccccc1 (centres unmarked)  10.2%
26. CC(=O)N[C@@H](Cc1c[nH]c2ccccc12)C(=O)NC1CC1  10.1%
27. CC(C)CC1NC(=O)N(CC(=O)N2c3ccccc3NC(=O)C2(C)C)C1=O (centres unmarked)  10%
28. Cc1ccc(S(=O)(=O)N/N=C/c2ccccc2O)cc1[N+](=O)[O-]  9.76%
29. CSc1nnc(C)c(=O)n1COC(=O)c1ccc(S(=O)(=O)N2CCOCC2)cc1  9.38%
30. CCOC(=O)Nc1ccc2c(COC(=O)CNS(=O)(=O)c3ccc(NC(C)=O)cc3)cc(=O)oc2c1  8.62%
31. Cc1cccc(NC(=S)NNC(=O)c2sccc2C)c1  8.19%
32. CC(C)OC(=O)C[N+](C)(C)CCN1C(=O)C2C(c3ccccc3)C=CC(c3ccccc3)C2C1=O.[Br-] (centres unmarked)  7.8%
33. NC(=O)CCSC(=S)N1CCOCC1  7.13%
34. Cc1ccc(/C=N/NC(=S)NC2CCCCC2)o1  7.08%
35. O=C(N/N=C/c1cccnc1)c1ccc(F)cc1  7.02%
36. CN(C)S(=O)(=O)c1cccc(-c2nn(-c3ccccc3)cc2/C=C2\SC(=S)N(CC(=O)O)C2=O)c1  6.66%
37. CCCNC(=O)N1[C@H]2CC[C@@H]1C(C(=O)OC)=C(c1ccc(S(C)(=O)=O)cc1)C2  5.86%
38. CCN(CC)S(=O)(=O)N1CCC(C(=O)NCc2ccc(C)cc2)CC1  4.89%
39. Cc1c(NC(=S)NC(NC(=O)C(C)(C)C)C(Cl)(Cl)Cl)c(=O)n(-c2ccccc2)n1C (centres unmarked)  4.81%
40. Cc1cc(C)cc(NC(=O)CS(=O)(=O)c2cccc3nsnc23)c1  4.74%
41. COc1ccc(/C=C2\COc3ccccc3C2=O)cc1OC  4.34%
42. CCCCCOc1ccc(CSc2ncn[nH]2)cc1  3.11%
43. CN(C)C1(c2nnnn2CCOC(=O)Nc2ccc(Cl)cc2)CCCCC1  1.01%
44. CCn1c2ccccc2c2cc(NC(=O)CSc3nnc(-c4cccc(OC)c4)n3N)ccc21  -0.458%
45. Cc1cc(C)c(CN2CCC(n3nccc3NC(=O)C3CCOC3)CC2)cc1C (centres unmarked)  -0.575%
46. Cc1ccnc(NC(=O)c2cccc(NC(=O)COc3ccccc3)c2)c1  -1.04%
47. Cc1cc(C)c2cc(CN(Cc3ccco3)C(=S)NCC3CCCO3)c(=O)[nH]c2c1 (centres unmarked)  -1.08%
48. Cc1ccc2cc(CCNC(=O)c3cccc([N+](=O)[O-])c3)c(=O)[nH]c2c1C  -1.31%
49. COc1cc(C2C(C#N)=C(N)Oc3n[nH]c(C)c32)cc2c1OCO2 (centres unmarked)  -3.12%
50. CCn1ncc(C2=NOC(C(=O)N3CCN(c4ccccc4)CC3)C2)c1C (centres unmarked)  -4.01%
51. COc1cc2c(cc1OC)C(C)N(C(=O)Cn1ncc3c1-c1cc(C)ccc1OC3)CC2 (centres unmarked)  -6.14%
52. CCc1ccc(N2CC(C(=O)OCC(=O)Nc3ccc([N+](=O)[O-])cc3)CC2=O)cc1 (centres unmarked)  -13.7%
53. CN(Cc1cn[nH]c1-c1ccc(-c2ccccc2)cc1)CC1CCOCC1  -16.7%
54. O=C(c1sc2ccccc2c1Cl)N1CCN(CCc2ccccn2)CC1  -22.5%
55. COc1ccc(CN2CCC(CO)(Cc3ccccc3C(F)(F)F)CC2)c(F)c1  -53%
56. Cl.c1ccc(CNc2c3c(nc4ccccc24)CCC3)cc1  -75.8%
